In this series the test system is ATP. Description: switch fluorescence ratio, 500 uM ATP over buffer (Cy3 cluster intensity, sum of 5 cycles each) (fold (ratio)); higher = stronger signal-on switching upon ATP binding; sequences stand for … in TCGTCGGCAGCGTCAGATGTGTATAAGAGACAGTTTTTTTTTTTTTTTTTTTTTTTTT…TC. To be noted: aptamer strand: ATP DNA aptamer (quencher-CACCTGGGGGAGTATTGCGGAGGAAGG + anchor), 100 nM annealed; ATP concentration: 500 uM; one replicate. The method, boiled down: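 Per cluster, summed Cy3 intensity from the target cycles was divided by that from the buffer cycles to give the fluorescence ratio, then averaged per switch-domain sequence. Clusters outside 100-1000 RFU were excluded. The Cy3-labelled switching-strand clusters, on a modified Illumina MiSeq flow-cell, were annealed to 100 nM quencher-labelled ATP aptamer and imaged in selection buffer, then after 15 min with 500 uM ATP at 22 °C, for five cycles with NaOH stripping and re-annealing between them.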

Sequences with one replicate were seen in a single cluster, so their values are uncertain.
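Also: ATP exposure 15 min at 22 °C before imaging.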

Consider GAGGCCCGTG, for which the switch fluorescence ratio turned out to be 1.
The same measure for GGATGTCTGG: 0.974; for TCCCGAAATA: 2.41.
In the case of TTTCCCACGA it was 1.53; in that of TAGAACTGCA, 1.03; in that of CAACTATGTC, 1.01.
In the case of CAGGGCTGAC it was 1.16.
Turning to GTGAGGCATT, the switch fluorescence ratio was 1.13.
Turning to CGGTAGTTCT, the switch fluorescence ratio amounted to 0.978.
The same measure for TTAGAATTA: 1.03; for ACCTTAAGCG: 0.995.
In the case of CAGATGTTGT it was 0.987.
The same measure for AATTTCTACT: 1.01; for CAGCACAGCC: 1.11.
For the sequence AATCCTGATC, the switch fluorescence ratio amounted to 1.27.
On to TAAAGAACCG, for which the switch fluorescence ratio was determined as 1.02.
The same measure for GGAGAGC: 0.896; for ACTACTGAGG: 1.07; for ATGATCTTAT: 1.01.
As for TGCGGAGAGA, the switch fluorescence ratio is 1.02.
In the case of TTACCGTCGG it was 1.03.
In the case of GGCATTATTA it was 0.978; in that of CCATGACGCG, 1.22; in that of TAGTACATAT, 1.
Consider CATATGCAAG, for which the switch fluorescence ratio worked out at 1.09.
The same measure for ACCTATCGGC: 1.04.
In the case of TGGTTTTTCA it was 1; in that of GTTAAGAT, 0.959.
As for CTGTCTTTTT, the switch fluorescence ratio amounted to 1.02.
The same measure for TCAGGCAGGA: 1.04; for TGGGAACAGG: 1.05.
GCAGCACAGA: the switch fluorescence ratio is 1.08.
Regarding ACCGAAATGG, the switch fluorescence ratio was 1.22.
In the case of AGTCAAGGT it was 1.02; in that of GAATGCCTCG, 1.07; in that of TGCTGGTCGC, 1.
As to GACCCGTGCT, the switch fluorescence ratio was determined as 1.07.
The same measure for TAACTGGCGC: 1.05; for CTGATTCTCT: 1.02.
Regarding AGATAGCTTT, the switch fluorescence ratio came out at 0.924.
In the case of GCGCAATGGT it was 2.39; in that of TGAAATCGAC, 1.06.
In the case of AATTAGGAAA it was 1; in that of CGCCTCGGCC, 1.04; in that of TAAAATCAGC, 0.961.
Consider ATGGTCGCAC, for which the switch fluorescence ratio was determined as 0.997.
In the case of ATTGATTCAT, the switch fluorescence ratio was determined as 0.985.
In the case of GTTTTTTAT it was 0.979; in that of CCGCTCTTGG, 1.2.
As to CCCGCGGATA, the switch fluorescence ratio amounted to 3.4.
In the case of CCATCGCCGA it was 1.09; in that of TGTTACTGGG, 0.957; in that of AGGGTTTATG, 0.978.
In the case of CATGTGAAAT it was 1.03.
Regarding TGTGATCA, the switch fluorescence ratio stood at 1.
In the case of AGCGGAGGGA it was 1.04; in that of ATCTATTTAG, 0.956.
In the case of CATAGTGTTC it was 1.01; in that of ACAAATGTGG, 0.975; in that of AACGAGTGGA, 1.02.
The same measure for AATCTAGGCT: 0.986; for ATAGACGGGT: 0.98; for TCCGTAA: 1.03.
Turning to CAAGTTTCCA, the switch fluorescence ratio came to 0.963.
The same measure for TCAGCCATGC: 1.31.
As for AAATCATGA, the switch fluorescence ratio amounted to 0.996.
The same measure for TAGCGATGTG: 1.05.
The same measure for CCTTAAGTG: 1.02.
In the case of CATCGGGTA it was 1.01; in that of GGCGAAGTCT, 1.03; in that of AATACTGGAC, 1.24.
On to TGTGTATTAC, for which the switch fluorescence ratio turned out to be 0.984.
The same measure for AGGCTTAGGC: 0.978; for AGTGTATGCC: 1.06.
In the case of AGGCATCTTG it was 1.03; in that of TTGGACGTAT, 1.09; in that of GTGGATATCG, 0.959.
In the case of TTGCCCGCTG it was 1.12; in that of TATAGCAATA, 5.34.

For the origin of these results see the supplement of paper PMC10126150.
